# Some of the results follow.
# B1: PhoQ; a variant is named by its letters at X, in order, P23837 (parent)
# chain: MKKLLRLFFPLSLRVRFLLATAAVVLVLSLAYGMVALIGYSVSFDKTTFRLLRGESNLFYTLAKWENNKLHVELPENIDKQSPTMTLIYDENGQLLWAQRDVPWLMKMIQPDWLKSNGFHEIEADVNDTSLLLSGDHSIQQQLQEVREDDDDAEMTHSVAVNVYPATSRMPKLTIVVVDTIPVELKSSYMVWSWFIYVLSANLLLVIPLLWVAAWWSLRPIEALAKEVRELEEHNRELLNPATTRELTSLVRNLNRLLKSERERYDKYRTTLTDLTHSLKTPLXXLQXXLRSLRSEKMSVSDAEPVMLEQISRISQQIGYYLHRASMRGGTLLSRELHPVAPLLDNLTSALNKVYQRKGVNISLDISPEISFVGEQNDFVEVMGNVLDNACKYCLEFVEISARQTDEHLYIVVEDDGPGIPLSKREVIFDRGQRVDTLRPGQGVGLAVAREITEQYEGKIVAGESMLGGARMEVIFGRQHSAPKDE
# Variants of: B1
# Experiment: enrichment ratio after two sorts for PhoP signalling (ratio (wild type AVST 3.29)); higher = more functional
# Details: with PhoP (E. coli)
row,Variant,enrichment ratio
1,LYIW,≤ 0.25
2,VLRS,≤ 0.25
3,HCSS,≤ 0.25
4,MFMA,≤ 0.25
5,HERL,≤ 0.25
6,FWNH,≤ 0.25
7,YCWY,≤ 0.25
8,FNIY,≤ 0.25
9,YFDK,≤ 0.25
10,FMLP,≤ 0.25
11,IFWK,≤ 0.25
12,GNES,≤ 0.25
13,WFLC,≤ 0.25
14,AWNE,≤ 0.25
15,VRNC,≤ 0.25
16,RKLC,≤ 0.25
17,WEAC,≤ 0.25
18,QFMH,≤ 0.25
19,SPTH,≤ 0.25
20,ERFN,≤ 0.25
21,RAGH,≤ 0.25
22,MVVD,≤ 0.25
23,LTMG,≤ 0.25
24,FEES,≤ 0.25
25,YQDP,≤ 0.25
26,ESYE,≤ 0.25

row,Variant,enrichment ratio
1,TAHK,≤ 0.25
2,WDCM,≤ 0.25
3,HYEP,≤ 0.25
4,QLIT,≤ 0.25
5,ARWY,≤ 0.25
6,SGTH,8.61
7,WQTY,≤ 0.25
8,LNLT,1.78
9,DVSS,≤ 0.25
10,WIFI,≤ 0.25
11,IANK,≤ 0.25
12,HVSK,≤ 0.25
13,LPTF,≤ 0.25
14,DMFD,≤ 0.25
15,LRMV,≤ 0.25
16,YWPP,≤ 0.25
17,FHDE,≤ 0.25
18,WPPF,≤ 0.25
19,FDSI,≤ 0.25
20,SAFK,≤ 0.25
21,IEIM,≤ 0.25
22,TLVA,≤ 0.25
23,AFCH,≤ 0.25
24,LGTG,≤ 0.25
25,NQDA,≤ 0.25
26,VDDN,≤ 0.25

row,Variant,enrichment ratio
1,ARKI,≤ 0.25
2,PFRV,≤ 0.25
3,QPPC,≤ 0.25
4,NACK,≤ 0.25
5,LGII,≤ 0.25
6,VERP,≤ 0.25
7,QSHH,≤ 0.25
8,AHAM,≤ 0.25
9,NARR,≤ 0.25
10,RRKW,≤ 0.25
11,PSYA,≤ 0.25
12,SHQP,≤ 0.25
13,NRDV,≤ 0.25
14,IKLR,≤ 0.25
15,ESFN,≤ 0.25
16,YALK,≤ 0.25
17,IEMS,≤ 0.25
18,WFHC,≤ 0.25
19,AERW,≤ 0.25
20,FMNT,≤ 0.25
21,FQKK,≤ 0.25
22,NGWN,≤ 0.25
23,QDNY,≤ 0.25
24,DNNS,≤ 0.25
25,KLEY,≤ 0.25
26,GVNF,≤ 0.25

row,Variant,enrichment ratio
1,DELA,≤ 0.25
2,GWDY,≤ 0.25
3,GSCK,≤ 0.25
4,MKCD,≤ 0.25
5,ITAG,≤ 0.25
6,KPEW,≤ 0.25
7,TYKM,≤ 0.25
8,RLDM,≤ 0.25
9,FWEN,≤ 0.25
10,ECVR,≤ 0.25
11,VEQL,≤ 0.25
12,MHKC,≤ 0.25
13,GLAG,≤ 0.25
14,SNVR,≤ 0.25
15,PYVD,≤ 0.25
16,TRFA,≤ 0.25
17,ADWT,≤ 0.25
18,EYMY,≤ 0.25
19,ENMT,≤ 0.25
20,PTIQ,≤ 0.25
21,EMCY,≤ 0.25
22,QTGY,≤ 0.25
23,HPGK,≤ 0.25
24,DIHM,≤ 0.25
25,HMFG,≤ 0.25
26,LGCT,≤ 0.25

row,Variant,enrichment ratio
1,IIMM,≤ 0.25
2,PKCT,≤ 0.25
3,QNMI,≤ 0.25
4,WYII,≤ 0.25
5,HWPR,≤ 0.25
6,SFCC,≤ 0.25
7,EHQM,≤ 0.25
8,EHQT,≤ 0.25
9,ALAI,5.26
10,RIRV,≤ 0.25
11,VELF,≤ 0.25
12,RCEP,≤ 0.25
13,MYYV,≤ 0.25
14,MESQ,7.96
15,QYDA,≤ 0.25
16,FMYM,≤ 0.25
17,ICSH,≤ 0.25
18,ATRD,≤ 0.25
19,YEHE,≤ 0.25
20,SDHV,≤ 0.25
21,NTID,≤ 0.25
22,MLWT,≤ 0.25
23,RYVC,≤ 0.25
24,QTFN,1.88
25,HQMQ,≤ 0.25
26,HLEF,≤ 0.25

row,Variant,enrichment ratio
1,ISDF,0.318
2,SKKV,≤ 0.25
3,TVTD,≤ 0.25
4,SPYW,≤ 0.25
5,GRPC,≤ 0.25
6,FTDR,≤ 0.25
7,PTEY,≤ 0.25
8,NWGG,≤ 0.25
9,SGYI,2.6
10,HYHI,≤ 0.25
11,TTGT,5.55
12,DEYI,≤ 0.25
13,HCST,≤ 0.25
14,FHMP,≤ 0.25
15,KTNE,≤ 0.25
16,DKYE,≤ 0.25
17,DCWI,≤ 0.25
18,PQFY,≤ 0.25
19,VNCH,7.43
20,RPAC,≤ 0.25
21,KGLN,≤ 0.25
22,VCKL,≤ 0.25
23,VNEY,≤ 0.25

# Source: a collection of fitness landscapes (doi:10.1126/science.1257360)
